PubChem BioAssay AID485294 (National Center for Advancing Translational Sciences (NCATS), 2010)
In all, about 370,000 compounds went through this assay and about 150 (0.041%) were called active. The shares of active, inactive and inconclusive entries below differ from those in the screen. Calls come from the whole dose curve; as a rule, active = well fitted inhibition curve with a large enough effect; inconclusive = small, poorly fitted or top-dose-only effect; inactive = flat fitted curve, though single readings scatter. No potency is given beside an inconclusive call; the fits are too rough.

Target: Beta-lactamase (Escherichia coli (strain K12)) (UniProt P00811)
Chain of UniProt P00811 (P00811 whole entry, looked up): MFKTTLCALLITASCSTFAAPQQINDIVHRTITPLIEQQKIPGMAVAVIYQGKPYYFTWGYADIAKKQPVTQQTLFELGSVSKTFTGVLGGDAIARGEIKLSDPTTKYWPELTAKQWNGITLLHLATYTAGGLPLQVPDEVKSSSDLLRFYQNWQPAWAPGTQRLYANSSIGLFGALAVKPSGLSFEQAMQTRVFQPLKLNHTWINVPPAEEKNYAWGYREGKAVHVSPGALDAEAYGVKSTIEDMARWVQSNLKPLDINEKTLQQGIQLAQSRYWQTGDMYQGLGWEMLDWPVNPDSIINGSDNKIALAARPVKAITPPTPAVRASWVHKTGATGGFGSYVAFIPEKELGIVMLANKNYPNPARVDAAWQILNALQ
Assay: qHTS Inhibitors of AmpC Beta-Lactamase (assay with detergent); note: nearly all actives have a fitted effect of over 25% in size;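 for activity change, negative = inhibition: 0% = no-compound wells and -100% = no-enzyme wells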
Details: AmpC hydrolysis of nitrocefin, absorbance 480 nm, 0.01% Triton; activity change, negative = inhibition: at 114 µM (top of the series)
Summary of the method: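 20 mM phosphate pH 7.0 + 0.01% (detergent screen) or 0.0001% Triton X-100; 5.3 nM AmpC reagent; cpd preinc 15 min RT; nitrocefin (800 uM stock) to start; A480 q20 s × 4 min; Activity was normalised to no-enzyme and no-compound control wells.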
Potency is the fitted concentration of half-maximal effect; tags give direction and shape of the fitted curve.

| SMILES | Potency | activity change, negative = inhibition |
| --- | --- | --- |
| Cc1cc(C(C)(C)C)ccc1OCCn1ccnc1 | inconclusive [inhibitor, full curve, poor fit] | – |
| CCOc1ccc(C2c3c(oc4cc(C)c(C)cc4c3=O)C(=O)N2c2ccccn2)cc1 (stereo not given) | inconclusive [inhibitor, single point] | – |
| O=C1c2ccccc2C(=O)N1CCCOCc1c[nH]c(=O)[nH]c1=O | inconclusive [inhibitor, partial curve, poor fit] | – |
| O=C(NCc1ccc2c(c1)OCO2)c1ccc(NS(=O)(=O)c2ccc3c(c2)OCCO3)cc1 | inconclusive [inhibitor, full curve, poor fit] | – |
| CCc1ccccc1OCCCCCNCCO | inconclusive [inhibitor, full curve, poor fit] | – |
| COc1cccc(NC(=O)CN(C)CC(=O)Nc2ccc3c(c2)CCC3)c1 | inconclusive [inhibitor, partial curve, poor fit] | – |
| N#Cc1cccc(NC(=O)COC(=O)Cn2nc(-c3ccccc3)oc2=O)c1 | inconclusive [inhibitor, single point] | – |
| CCOc1ccc(NC(=O)CN(C)C(=O)CN2C(=O)NC3(CCCC3)C2=O)cc1OCC | inconclusive [inhibitor, full curve, poor fit] | – |
| Cc1ccc(-c2nn(-c3ccccc3)cc2C(=O)N2CCN(C3CCS(=O)(=O)C3)CC2)cc1 (stereo not given) | inconclusive [inhibitor, partial curve, poor fit] | – |
| CC(=O)Nc1cccc(NC(=O)Cc2csc(COc3cccc(C)c3)n2)c1 | inactive | – |
| Cc1nn(CCC(=O)O)c2nc(-c3cccnc3)cc(C(F)(F)F)c12 | inconclusive [inhibitor, partial curve, poor fit] | – |
| CCN(CC)CCNC(=O)/C(=C\c1cccn1C)NC(=O)c1cccs1 | inactive | – |
| CN(C)CCSc1nnc(-c2ccccc2)o1 | inconclusive [inhibitor, full curve, poor fit] | – |
| Fc1ccc(-c2csc3ncnc(N4CCc5ccccc5C4)c23)cc1 | inconclusive [inhibitor, full curve, poor fit] | – |
| COc1ccc(CCNC(=O)C(=O)NCC2CCCN2S(=O)(=O)c2cccs2)cc1 (stereo not given) | inconclusive [inhibitor, full curve] | – |
| O=C(/C=C/c1cn(CC(O)CN2CCOCC2)c2ccccc12)c1cccs1 (stereo not given) | inactive | – |
| COc1cccc(NC(=O)C2CCCN2S(=O)(=O)c2ccc3nc(-c4ccccc4)[nH]c3c2)c1 (stereo not given) | inactive | – |
| CN1CCN(/C=N/C2=C(C#N)C(c3ccccc3)C3=C(CC(C)(C)CC3=O)O2)CC1 (stereo not given) | inconclusive [inhibitor, full curve] | – |
| CCc1c(C)c2ccc(OCC(=O)NCC3CCC(C(=O)O)CC3)cc2oc1=O (stereo not given) | inconclusive [inhibitor, partial curve] | – |
| O=C(NCc1ccccc1)c1ccc(=O)[nH]n1 | inconclusive [inhibitor, full curve, poor fit] | – |
| Cc1cc(SCC(=O)Nc2nsc(-c3ccc(C(C)(C)C)cc3)n2)nc2ccccc12 | inactive | – |
| O=C1C=CC(=O)N1 | inconclusive [inhibitor, full curve, poor fit] | – |

| SMILES | Potency | activity change, negative = inhibition |
| --- | --- | --- |
| COc1ccc(Cl)cc1N1C(=O)C2CCCN2C1c1ccc(F)c(F)c1 (stereo not given) | inconclusive [inhibitor, full curve, poor fit] | – |
| Cc1nc2ccc(Cl)cc2c(=O)n1-c1cccc(Cl)c1 | inconclusive [inhibitor, full curve, poor fit] | – |
| CC(C)CC(NC(=O)OC(C)(C)C)C(=O)NCc1ccccc1 (stereo not given) | inconclusive [inhibitor, single point] | – |
| Cc1cccc(OCC(=O)OC(C)C(=O)Nc2ccc(Cl)cn2)c1 (stereo not given) | inconclusive [inhibitor, partial curve, poor fit] | – |
| CC(Oc1ccc(F)cc1)C(=O)N(CCC1=CCCCC1)c1c(N)n(Cc2ccccc2)c(=O)[nH]c1=O (stereo not given) | inconclusive [inhibitor, single point] | – |
| Oc1ccc2n[nH]nc2c1 | inconclusive [inhibitor, partial curve, poor fit] | – |
| CSc1ccc(CNC2CC2)cc1 | inconclusive [inhibitor, partial curve, poor fit] | – |
| O=C(c1ccc2c(=O)n3c(nc2c1)CCCCC3)N1CCN(c2ccc(Cl)cc2)CC1 | inconclusive [inhibitor, partial curve, poor fit] | – |
| Cc1cc(C)c(-c2csc(NC(=O)CCCc3nc4ccccc4c(=O)[nH]3)n2)c(C)c1 | – | inconclusive: -16.4% [inhibitor] |
| COc1ccc(-c2nnc(NC(=O)c3ccc4c(c3)OCCO4)o2)cc1 | inactive | – |
| CCOC(=O)Cc1cc(=O)n2[nH]c(-c3ccc(Cl)cc3)cc2n1 | inactive | – |
| CC1(C)CCC(=O)N2CC[C@H]3C[C@H](OC(=O)Nc4ccc(Br)cc4)C[C@@H]1[C@H]32 | inconclusive [inhibitor, full curve, poor fit] | – |
| S=C(c1ccccc1)N1CCCC1 | inconclusive [inhibitor, full curve, poor fit] | – |
| CCCCNC(=O)CSc1nc2cc(OC)c(OC)cc2c(=O)n1Cc1ccc(OC)cc1 | inconclusive [inhibitor, full curve, poor fit] | – |
| COc1ccc(CN2C3CCCC2CC(NC(=O)Nc2ccccc2C)C3)cc1 (stereo not given) | inconclusive [inhibitor, partial curve, poor fit] | – |
| CCC(C)NC(=O)CCC(=O)NNc1nc2ccccc2c2nc(C)nn12 (stereo not given) | inactive | – |
| Cc1ccc(NC(=O)CSc2nccn2Cc2ccc3c(c2)OCO3)c(C)c1 | inactive | – |
| COc1cc2c(cc1OC)C(NC(=O)C(F)(F)F)C/C2=N\O (stereo not given) | inactive | – |
| COc1cc2c(C(=O)N3CCN(C4CCCCC4)CC3)cn(CC(C)C)c(=O)c2cc1OC | inconclusive [inhibitor, full curve, poor fit] | – |
| COc1ccccc1N1CCN(C(=O)CSc2nnc3n2C(C)(C)Cc2ccccc2-3)CC1 | inconclusive [inhibitor, full curve, poor fit] | – |
| COc1ccc([N+](=O)[O-])cc1NC(=O)CSCc1ccc(Br)cc1 | inconclusive [inhibitor, partial curve] | – |
| COc1ccc(S(=O)(=O)NCCc2sc(-c3cccc(F)c3)nc2C)cc1 | inactive | – |

| SMILES | Potency | activity change, negative = inhibition |
| --- | --- | --- |
| CNC(=S)Nc1ccc2nc(C)oc2c1 | inactive | – |
| CCCCCCCNC1=CC(=O)CC(c2ccco2)C1 (stereo not given) | inconclusive [inhibitor, single point] | – |
| COc1ccc(N2CCN(C(=O)COC(=O)c3oc4ccc(OC)cc4c3C)CC2)cc1 | inconclusive [inhibitor, full curve, poor fit] | – |
| CC(=O)c1c(N2CCN(c3ccc(F)cc3)CC2)nc(=S)n(-c2ccccc2)c1C | inconclusive [inhibitor, partial curve] | – |
| Cc1ccc(SCCC(=O)Nc2ccc(Br)c(C)c2)cc1 | inconclusive [inhibitor, partial curve, poor fit] | – |
| C1=Nc2c(Nc3ccccc3)ncnc2Oc2ccccc21 | inconclusive [inhibitor, full curve, poor fit] | – |
| CCOc1ccc2nc(NC(=O)c3ccoc3C)sc2c1 | inactive | – |
| CCC(C(=O)N1CCc2ccccc2C1)n1nc(C)n2c(cc3occc32)c1=O (stereo not given) | inconclusive [inhibitor, full curve, poor fit] | – |
| O=C(NCCc1cn2ccccc2n1)C1CCCCC1 | inconclusive [inhibitor, full curve] | – |
| O=C(NCc1ccc(Cl)cc1)C1CCCN1C(=O)Nc1ccccc1 (stereo not given) | inconclusive [inhibitor, partial curve, poor fit] | – |
| CCOCCc1nn2c(=O)cc(COC(=O)c3cccc(C)c3)nc2s1 | inactive | – |
| COc1ccc(NC(=O)NNC(=O)C(C)Oc2ccc3ccccc3c2)cc1 (stereo not given) | inconclusive [inhibitor, full curve, poor fit] | – |
| Cc1cc(F)ccc1NC(=O)c1ccc(NS(=O)(=O)c2cc(C(C)(C)C)ccc2C)cc1 | inconclusive [inhibitor, single point] | – |
| Cn1c(SCC(=O)NC2CC2)nnc1-c1ccccc1 | inactive | – |
| O=C(NC1CC2CCCC(C1)N2CC(=O)N1CCCc2ccccc21)C1CCCCC1 (stereo not given) | inconclusive [inhibitor, full curve, poor fit] | – |
| O=S(=O)(NCC(c1ccccc1)N1CCC(O)CC1)c1ccc(Cl)cc1 (stereo not given) | inconclusive [inhibitor, full curve] | – |
| C[C@](N)(Cc1ccc(O)c(O)c1)C(=O)O | inconclusive [inhibitor, single point] | – |
| Cc1ccc(Cn2c(CN3CCC(C(=O)NCC(C)c4ccccc4)CC3)cc3ccccc32)cc1 (stereo not given) | inactive | – |
| O=C(O)c1ccc2c(c1)C1C=CCC1C(c1ccncc1)N2 (stereo not given) | inconclusive [inhibitor, full curve, poor fit] | – |
| COc1ccc(S(=O)(=O)NNC(=S)NCCc2ccccc2)c(OC)c1 | inactive | – |
| CC(C)(C)c1ccc(OCC(=O)N(Cc2cccs2)C2CCS(=O)(=O)C2)cc1 (stereo not given) | inconclusive [inhibitor, partial curve] | – |
